The values below come from PMC4336329 (PLoS ONE, 2015).

Structures are written as SMILES. The whole screen tested about 310,000 compounds, of which about 14,000 (4.5%) showed an effect of 50% or more. Effects have a minus sign here. Some of the results follow.
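Also: peak tail current of the secondary pulse compared with the same well before compound.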

Chain of human ether-à-go-go-related gene (hERG) potassium channel (Q12809 whole entry, looked up): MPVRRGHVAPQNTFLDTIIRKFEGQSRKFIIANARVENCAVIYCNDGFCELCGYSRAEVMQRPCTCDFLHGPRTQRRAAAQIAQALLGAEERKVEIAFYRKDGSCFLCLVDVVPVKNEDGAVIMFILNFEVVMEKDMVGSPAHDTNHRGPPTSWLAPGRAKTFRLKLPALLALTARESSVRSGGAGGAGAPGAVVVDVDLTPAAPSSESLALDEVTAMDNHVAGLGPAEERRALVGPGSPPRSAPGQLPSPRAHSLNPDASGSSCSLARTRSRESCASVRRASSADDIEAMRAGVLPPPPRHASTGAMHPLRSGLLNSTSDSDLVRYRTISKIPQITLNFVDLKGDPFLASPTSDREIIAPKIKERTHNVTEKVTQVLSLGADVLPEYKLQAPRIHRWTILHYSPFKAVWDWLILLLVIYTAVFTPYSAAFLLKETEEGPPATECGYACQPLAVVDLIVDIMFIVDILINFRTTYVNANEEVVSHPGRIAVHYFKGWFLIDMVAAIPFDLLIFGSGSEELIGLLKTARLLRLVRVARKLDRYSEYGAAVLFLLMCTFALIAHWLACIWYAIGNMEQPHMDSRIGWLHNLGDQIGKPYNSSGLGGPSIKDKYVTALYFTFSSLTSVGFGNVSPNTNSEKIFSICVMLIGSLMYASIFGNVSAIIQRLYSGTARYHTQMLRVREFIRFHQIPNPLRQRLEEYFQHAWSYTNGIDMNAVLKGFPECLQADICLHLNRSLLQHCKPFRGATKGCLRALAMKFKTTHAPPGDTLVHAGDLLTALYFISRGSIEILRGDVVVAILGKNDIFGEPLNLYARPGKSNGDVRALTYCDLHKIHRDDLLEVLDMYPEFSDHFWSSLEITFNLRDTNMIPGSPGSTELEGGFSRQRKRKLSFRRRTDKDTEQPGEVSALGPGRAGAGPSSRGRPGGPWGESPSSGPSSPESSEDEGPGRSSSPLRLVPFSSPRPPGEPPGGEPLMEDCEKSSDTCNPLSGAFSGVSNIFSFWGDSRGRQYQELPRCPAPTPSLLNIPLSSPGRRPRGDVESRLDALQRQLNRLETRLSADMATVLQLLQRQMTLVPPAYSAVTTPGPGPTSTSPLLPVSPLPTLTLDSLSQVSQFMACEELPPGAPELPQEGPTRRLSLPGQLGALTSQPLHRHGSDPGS

This test addresses human ether-à-go-go-related gene (hERG) potassium channel (human, UniProt Q12809). As to the kind of experiment: primary screen, population patch clamp on CHO cells stably expressing hERG.
For the molecule `O/N=C\c1cccn1-c1ccc(Br)cc1`, the “hERG current change (%, negative = inhibition) at 10uM” value is -0.768%.
Turning to `CC(C)CCN1CCN(Cc2ccc(N3CCNC3=O)cc2)CC1CCO` (centres unmarked), the “hERG current change (%, negative = inhibition) at 10uM” value is -20.1%.
Regarding `Cc1ccc2c(C(=O)CN3CCCCC3CCO)c(C)[nH]c2c1` (centres unmarked), the “hERG current change (%, negative = inhibition) at 10uM” value was -25.9%.
Take `O=[N+]([O-])c1ccc(N=Cc2c(O)ccc3ccccc23)cc1`: the “hERG current change (%, negative = inhibition) at 10uM” value worked out at 5.58%.
Turning to `N#Cc1c(-c2ccccc2)c(C#N)c2nc3ccccc3n2c1N`, the “hERG current change (%, negative = inhibition) at 10uM” value was 8.92%.
Under `Cc1cccc(NC(=O)[C@H](Cc2ccccc2)NC(=O)[C@@H]2Cc3ccccc3CN2)c1` stands -0.0161%.
Under `Cc1cc([N+](=O)[O-])c(C)cc1-c1ccc(/C=N/NC(=O)c2cccnc2)o1` stands -0.453%; under `Cc1ccc(CNC(=O)c2ccccc2NS(=O)(=O)c2ccc(Cl)nc2)cc1`, 12.6%.
Under `CSCCC(=O)N1CC[C@@H](N2CCN(c3ccccc3F)CC2)[C@H](O)C1` stands -6.63%; under `CCCCn1c(N)c(N(CCOC)C(=O)c2ccc(N3C(=O)CCC3=O)cc2)c(=O)[nH]c1=O`, 8.25%; under `O=C(NC(=S)NCC1COc2ccccc2O1)c1ccccc1` (centres unmarked), -19.5%.
Turning to `Cn1c(-c2ccccc2F)cc2onc(-c3ccccc3)c2c1=O`, the “hERG current change (%, negative = inhibition) at 10uM” value was -2.91%.
On to `COc1ccc(-c2noc(-c3ccccc3C(=O)N3CCOCC3)n2)cc1`, for which the “hERG current change (%, negative = inhibition) at 10uM” value is listed as -14%.
The value for `COC(=O)CCCC(=O)N1CCC(CCC(=O)NCc2ccc(F)cc2)CC1` was -24%.
The value for `Cc1ccc(C(=O)N2C(=O)c3cccc(N)c3C2=O)o1` was 15.4%.
Regarding `COCCn1c(SCC(=O)NCc2ccc(OC)c(OC)c2)nc2ccccc21`, the “hERG current change (%, negative = inhibition) at 10uM” value was determined as 16.2%.
Under `COc1ccc(N2CCN(Cc3nc4ccccc4[nH]3)CC2)cc1` stands 1.56%.
Under `O=c1cc([O-])n(C2CCCCCC2)c(=O)[nH]1.[NH4+]` stands 7.16%; under `CCn1ncc([N+](=O)[O-])c1C(=O)Nc1nc2cccc(C)c2s1`, 0.94%.
`NNC(=O)CN1C(=O)Nc2ccc(Br)cc2C1c1ccccc1` (centres unmarked): the “hERG current change (%, negative = inhibition) at 10uM” value is listed as 5.62%.
Consider `CCOC(=O)N1CCN(Cc2oc(CO)cc(=O)c2O)CC1`, for which the “hERG current change (%, negative = inhibition) at 10uM” value is reported as 14.7%.
For the molecule `CCOC(=O)c1nn(-c2ccc(C)cc2)c(=O)cc1OCC(=O)Nc1ccc(OC)cc1`, the “hERG current change (%, negative = inhibition) at 10uM” value is on record as 4.25%.
Turning to `Cc1ccc(NC(=O)CC(=O)Nc2ccc(C)cc2)cc1`, the “hERG current change (%, negative = inhibition) at 10uM” value was 25.8%.
Under `CCCCCCCCCCCCC(=O)CCCCC(=O)O` stands -2.67%; under `COc1ccccc1N1CCN(C2CCN(C(=O)COc3ccccc3)CC2)CC1`, -25.4%.
The value for `COc1cccc(CC2(CO)CCN(Cc3ccc4cccc(F)c4n3)CC2)c1` was -64.4%; that for `COC(=O)c1[nH]c2ccccc2c1NC(=O)CN1CCCCCC1` was -21.5%.
For `CC1(C(=O)O)CCC(C(=O)N2CCOCC2)C1(C)C` (centres unmarked), the “hERG current change (%, negative = inhibition) at 10uM” value stood at 6.48%.
Take `CCc1nnc(NC(=O)c2cccs2)s1`: the “hERG current change (%, negative = inhibition) at 10uM” value stood at 9.54%.
Under `CCOCCCNC(=O)CNC(=S)N(Cc1ccccc1F)C1CCCCC1` stands -10.8%; under `COc1ccc(OC)c(NC(=O)Cc2nn(C)c(=O)c3ccccc23)c1`, 3.73%.
The value for `CC(C)(C)OC(=O)N/N=C\c1ccc([N+](=O)[O-])s1` was -0.286%.
Under `O=C(O)CCSc1ccc2ccccc2n1` stands 0.579%; under `COC(=O)c1c(NC(=O)CN(C)CC(=O)Nc2ccc(C)cc2)sc2c1CCC(C)C2` (centres unmarked), -26.7%.
Turning to `O=C1CC(c2ccccc2)CN1S(=O)(=O)c1ccccc1` (centres unmarked), the “hERG current change (%, negative = inhibition) at 10uM” value is recorded as -20.1%.
The value for `COC(=O)/C=C1/C(=O)N/C(=N\c2nc(C)cc(C)n2)N1c1ccc(OC)cc1` was 9.17%.
Under `COC(=O)CSCC(=O)Nc1cc2c(cc1C(C)=O)OCO2` stands 10.2%.
`COc1ccc2[nH]c(=O)c(COC(=O)c3cccs3)cc2c1`: the “hERG current change (%, negative = inhibition) at 10uM” value is given as -4.96%.
The value for `CCOc1cccc(C(=O)Nc2ccc(NC(=O)c3cc4ccccc4o3)c(OC)c2)c1` was 20.5%.
Consider `Cc1ccc2nsnc2c1S(=O)(=O)N1CCN(C(=O)C2CCCO2)CC1` (centres unmarked), for which the “hERG current change (%, negative = inhibition) at 10uM” value came to 2.61%.
Regarding `O=C(NCc1ccccc1Cl)c1ccc(NC2=NC3CS(=O)(=O)CC3S2)cc1` (centres unmarked), the “hERG current change (%, negative = inhibition) at 10uM” value is -6.66%.
In the case of `COc1ccccc1CC(=O)NC(=O)c1ccccc1O`, the “hERG current change (%, negative = inhibition) at 10uM” value is on record as 44.3%.
Take `COc1cc(/C=C/C(=O)O)cc(S(=O)(=O)NCc2ccco2)c1OC`: the “hERG current change (%, negative = inhibition) at 10uM” value came out at 12.5%.
Under `O=C1C(=O)c2ccccc2C([O-])=C1[n+]1ccccc1` stands -0.885%.
